Results: the supplement of paper PMC10126150
Values marked as one replicate rest on one cluster of the flow cell; about a third of the high ones do not repeat.

The sequences below were run on ATP (assay: switch fluorescence ratio, 500 uM ATP over buffer (Cy3 cluster intensity, sum of 5 cycles each) (fold (ratio)); higher = stronger signal-on switching upon ATP binding; sequences stand for … in TCGTCGGCAGCGTCAGATGTGTATAAGAGACAGTTTTTTTTTTTTTTTTTTTTTTTTT…TC). Conditions: aptamer strand: ATP DNA aptamer (quencher-CACCTGGGGGAGTATTGCGGAGGAAGG + anchor), 100 nM annealed; ATP concentration: 500 uM; one replicate.
Outline: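 The fluorescence ratio divides summed target-cycle Cy3 intensity by summed buffer-cycle Cy3 intensity for each cluster and is averaged per switch-domain sequence. Cy3-labelled switching-strand clusters on a modified Illumina MiSeq flow-cell were annealed to 100 nM quencher-labelled ATP aptamer, then imaged in selection buffer and again after 15 min with 500 uM ATP at 22 °C. Five such cycles were run, with NaOH stripping and re-annealing between them, and clusters outside 100-1000 RFU were excluded.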
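Further: ATP exposure 15 min at 22 °C before imaging.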

Sequence	switch fluorescence ratio
GTTCATGTAT	0.978
GTTCCACGAT	1.04
GTTCCCCTTG	0.947
GTTCCGGCTT	0.955
GTTCCGTATT	0.993
GTTCCTTCTC	1.39
GTTCGAAAGT	1.01
GTTCGAACTT	0.984
GTTCGACGGT	1.02
GTTCGAGGGA	0.977
GTTCGAGTAG	0.985
GTTCGGCTGC	0.95
GTTCGGCTGG	1.02
GTTCGGGCGC	1.04
GTTCTAACGC	1.05
GTTCTAATGG	1
GTTCTAGTTG	0.94
GTTCTATGGC	1.06
GTTCTGGCTG	1.04
GTTCTGGTCA	1.04
GTTCTTTTGC	0.925
GTTGAAACCA	0.993
GTTGAAAGCA	1.04
GTTGAACATG	0.983
GTTGAAGTG	1.01

Sequence	switch fluorescence ratio
GTTGAGTGCT	0.969
GTTGCAAGTG	0.99
GTTGCACTAC	2.81
GTTGCAGGG	0.986
GTTGCATTGT	1.1
GTTGCCACTT	0.978
GTTGCCAGAG	0.993
GTTGCGGATT	1.02
GTTGCGTAAG	0.972
GTTGCTAGCT	0.993
GTTGCTTAGG	1.03
GTTGCTTGAC	1.01
GTTGCTTTGT	0.986
GTTGGAAGGA	0.958
GTTGGAATAT	1.03
GTTGGACTGT	1.02
GTTGGAGAAT	0.995
GTTGGATCAC	1
GTTGGGCATC	0.993
GTTGGGTAG	0.995
GTTGGTACAG	1.04
GTTGGTAGAG	1
GTTGTGCGCG	0.984
GTTGTGGATT	0.993
GTTGTTGATT	0.993

Sequence	switch fluorescence ratio
GTTGTTTATG	0.966
GTTTAACCTA	0.988
GTTTAATAAG	0.922
GTTTAGACCC	1.06
GTTTATCTGG	0.97
GTTTCAAATA	0.978
GTTTCAAGT	1.01
GTTTCAGAAT	0.973
GTTTCAGTTT	1.01
GTTTCGAATG	0.972
GTTTCGGTCG	0.92
GTTTCGTCGT	1.02
GTTTGAGTAC	1.01
GTTTGCGCCT	1.01
GTTTGCGGGA	0.952
GTTTGCTCTA	0.94
GTTTGTTTCG	0.99
GTTTTAACTC	1
GTTTTAAGTT	1.01
GTTTTAGAAG	0.949
GTTTTATTCA	0.945
GTTTTCGACA	1
GTTTTCGAGA	1.04
GTTTTCGTCC	0.983
GTTTTCGTGC	0.987

Sequence	switch fluorescence ratio
GTTTTCTGAT	1.01
GTTTTGCCAC	0.98
GTTTTTGGCA	0.982
GTTTTTGTTC	0.958
TAAAAAATGA	1.03
TAAAAATCGC	0.942
TAAAACATT	1
TAAAACGGGC	1.03
TAAAAGAGT	0.975
TAAAAGTCTG	1.04
TAAAAGTGCT	1.03
TAAAATAATT	1.04
TAAAATCCGA	1.01
TAAAATTGTG	0.992
TAAAATTTGG	0.965
TAAACAAGCA	1.05
TAAACAAGT	0.994
TAAACACCTA	1.05
TAAACCCTCG	1.06
TAAACGAAAT	1.02
TAAACGAACT	1.24
TAAACGCTT	1.01
TAAACTTGT	1.01
TAAAGAAC	0.999
TAAAGAACA	0.989
